Measured values published in patent US5171836A, “Antibiotics plusbacin” (Shionogi & Co., Ltd., priority 1989, dated 1992).
Values after ≈ are worked out from the molar mass of the structure shown. Part of at least one peptide drawing is inferred or uncertain, most often the ends. *1 amine or outer side, *2 acyl side, *3 side chain or, on linkers, in order; H or OH if unused. Where a SMILES comes first, the peptide text is derived from it. Bridges are numbered along the chain shown (N, C = ends). [ ]: non-standard residue; d: D form. dAsp(3R-OH) = N[C@@H](C(=O)O)[C@@H](O)C(=O)O; Asp(3S-OH) = N[C@H](C(=O)O)[C@H](O)C(=O)O; X1 = CC(C)CCCCCCCCCCC(CC(=O)[*:1])O[*:2]; X4 = CC(C)CCCCCCCCCC(CC(=O)[*:1])O[*:2]; X3 = CCCCCCCCCCCCCC(CC(=O)[*:1])O[*:2]; Pro(3S-OH) = O=C(O)[C@H]1NCC[C@@H]1O; X2 = CCCCCCCCCCCC(CC(=O)[*:1])O[*:2]; d(aThr) = C[C@@H](O)[C@@H](N)C(=O)O

Tests used:
Assay in all cases: in vitro antibacterial activity, agar dilution MIC
Type in all cases: cell-based
[1] = tested on: Staphylococcus aureus JC-1; conditions: Staphylococcus aureus JC-1, methicillin-sensitive; agar plate, 18-20 hours at 37° C.
[2] = tested on: Enterococcus faecalis SR1004; conditions: agar plate, 18-20 hours at 37° C.
[3] = tested on: Staphylococcus epidermidis A14990; conditions: agar plate, 18-20 hours at 37° C.
[4] = tested on: Staphylococcus aureus SR5580; conditions: Staphylococcus aureus SR5580, methicillin-resistant; agar plate, 18-20 hours at 37° C.
[5] = tested on: Staphylococcus aureus SMITH; conditions: methicillin-sensitive, agar plate, 18-20 hours at 37° C.
[6] = tested on: Staphylococcus aureus SR5597; conditions: Staphylococcus aureus SR5597, methicillin-resistant; agar plate, 18-20 hours at 37° C.
[7] = tested on: Staphylococcus aureus SR5577; conditions: Staphylococcus aureus SR5577, methicillin-sensitive; agar plate, 18-20 hours at 37° C.

Compound | MIC [1] [µg/mL] | MIC [2] [µg/mL] | MIC [3] [µg/mL] | MIC [4] [µg/mL] | MIC [5] [µg/mL] | MIC [6] [µg/mL] | MIC [7] [µg/mL]
CCCCCCCCCCCCCC1CC(=O)N[C@H]([C@@H](C)O)C(=O)N[C@H](C)C(=O)N2CCC[C@H]2C(=O)N[C@@H](CCCNC(=N)N)C(=O)N[C@H]([C@@H](O)C(=O)O)C(=O)N[C@H](CO)C(=O)N2CC[C@H](O)[C@H]2C(=O)N[C@@H]([C@H](O)C(=O)O)C(=O)O1 (stereo partly drawn) [Plusbacin B4] ([d(aThr)][dA]PR[dAsp(3R-OH)][dS][Pro(3S-OH)][Asp(3S-OH)]; linker N-C via X3) | 0.8 (≈ 0.7 µM) | 6.3 (≈ 5.52 µM) | 1.6 (≈ 1.4 µM) | 1.6 (≈ 1.4 µM) | 1.6 (≈ 1.4 µM) | 1.6 (≈ 1.4 µM) | 1.6 (≈ 1.4 µM)
CCCCCCCCCCCC1CC(=O)N[C@H]([C@@H](C)O)C(=O)N[C@H](C)C(=O)N2CCC[C@H]2C(=O)N[C@@H](CCCNC(=N)N)C(=O)N[C@H]([C@@H](O)C(=O)O)C(=O)N[C@H](CO)C(=O)N2CC[C@H](O)[C@H]2C(=O)N[C@@H]([C@H](O)C(=O)O)C(=O)O1 (stereo partly drawn) [Plusbacin B1] ([d(aThr)][dA]PR[dAsp(3R-OH)][dS][Pro(3S-OH)][Asp(3S-OH)]; linker N-C via X2) | 0.1 (≈ 0.0897 µM) | 6.3 (≈ 5.65 µM) | 0.8 (≈ 0.718 µM) | 1.6 (≈ 1.44 µM) | 1.6 (≈ 1.44 µM) | 1.6 (≈ 1.44 µM) | 1.6 (≈ 1.44 µM)
CC(C)CCCCCCCCCC1CC(=O)N[C@H]([C@@H](C)O)C(=O)N[C@H](C)C(=O)N2CC[C@H](O)[C@H]2C(=O)N[C@@H](CCCNC(=N)N)C(=O)N[C@H]([C@@H](O)C(=O)O)C(=O)N[C@H](CO)C(=O)N2CC[C@H](O)[C@H]2C(=O)N[C@@H]([C@H](O)C(=O)O)C(=O)O1 (stereo partly drawn) [Plusbacin A2] ([d(aThr)][dA][Pro(3S-OH)]R[dAsp(3R-OH)][dS][Pro(3S-OH)][Asp(3S-OH)]; linker N-C via X4) | 0.1 (≈ 0.0874 µM) | 0.6 (≈ 0.524 µM) | 0.2 (≈ 0.175 µM) | 0.8 (≈ 0.699 µM) | 0.8 (≈ 0.699 µM) | 0.8 (≈ 0.699 µM) | 0.8 (≈ 0.699 µM)
CC(C)CCCCCCCCCCC1CC(=O)N[C@H]([C@@H](C)O)C(=O)N[C@H](C)C(=O)N2CC[C@H](O)[C@H]2C(=O)N[C@@H](CCCNC(=N)N)C(=O)N[C@H]([C@@H](O)C(=O)O)C(=O)N[C@H](CO)C(=O)N2CC[C@H](O)[C@H]2C(=O)N[C@@H]([C@H](O)C(=O)O)C(=O)O1 (stereo partly drawn) [Plusbacin A3] ([d(aThr)][dA][Pro(3S-OH)]R[dAsp(3R-OH)][dS][Pro(3S-OH)][Asp(3S-OH)]; linker N-C via X1) | 0.1 (≈ 0.0863 µM) | 0.8 (≈ 0.691 µM) | 0.2 (≈ 0.173 µM) | 0.8 (≈ 0.691 µM) | 0.4 (≈ 0.345 µM) | 0.4 (≈ 0.345 µM) | 0.8 (≈ 0.691 µM)
CCCCCCCCCCCC1CC(=O)N[C@H]([C@@H](C)O)C(=O)N[C@H](C)C(=O)N2CC[C@H](O)[C@H]2C(=O)N[C@@H](CCCNC(=N)N)C(=O)N[C@H]([C@@H](O)C(=O)O)C(=O)N[C@H](CO)C(=O)N2CC[C@H](O)[C@H]2C(=O)N[C@@H]([C@H](O)C(=O)O)C(=O)O1 (stereo partly drawn) [Plusbacin A1] ([d(aThr)][dA][Pro(3S-OH)]R[dAsp(3R-OH)][dS][Pro(3S-OH)][Asp(3S-OH)]; linker N-C via X2) | 0.05 (≈ 0.0442 µM) | 6.3 (≈ 5.57 µM) | 0.8 (≈ 0.708 µM) | 1.6 (≈ 1.42 µM) | 1.6 (≈ 1.42 µM) | 1.6 (≈ 1.42 µM) | 1.6 (≈ 1.42 µM)
CCCCCCCCCCCCCC1CC(=O)N[C@H]([C@@H](C)O)C(=O)N[C@H](C)C(=O)N2CC[C@H](O)[C@H]2C(=O)N[C@@H](CCCNC(=N)N)C(=O)N[C@H]([C@@H](O)C(=O)O)C(=O)N[C@H](CO)C(=O)N2CC[C@H](O)[C@H]2C(=O)N[C@@H]([C@H](O)C(=O)O)C(=O)O1 (stereo partly drawn) [Plusbacin A4] ([d(aThr)][dA][Pro(3S-OH)]R[dAsp(3R-OH)][dS][Pro(3S-OH)][Asp(3S-OH)]; linker N-C via X3) | 0.1 (≈ 0.0863 µM) | 0.8 (≈ 0.691 µM) | 0.4 (≈ 0.345 µM) | 0.4 (≈ 0.345 µM) | 0.4 (≈ 0.345 µM) | 0.4 (≈ 0.345 µM) | 0.4 (≈ 0.345 µM)
